The source of these data is PubChem BioAssay AID485344 (National Center for Advancing Translational Sciences (NCATS), 2010).

Among all 340,000 compounds or so, about 6,900 (2%) were called active. Rule as the data show it: active = inhibition above about 30%; inactive = below that, where a call was filed. The entries are a selection whose mix differs from that of the whole data set. Entries without a call were filed so in the source.

Sequence of UniProt P14416 (P14416 whole entry, looked up): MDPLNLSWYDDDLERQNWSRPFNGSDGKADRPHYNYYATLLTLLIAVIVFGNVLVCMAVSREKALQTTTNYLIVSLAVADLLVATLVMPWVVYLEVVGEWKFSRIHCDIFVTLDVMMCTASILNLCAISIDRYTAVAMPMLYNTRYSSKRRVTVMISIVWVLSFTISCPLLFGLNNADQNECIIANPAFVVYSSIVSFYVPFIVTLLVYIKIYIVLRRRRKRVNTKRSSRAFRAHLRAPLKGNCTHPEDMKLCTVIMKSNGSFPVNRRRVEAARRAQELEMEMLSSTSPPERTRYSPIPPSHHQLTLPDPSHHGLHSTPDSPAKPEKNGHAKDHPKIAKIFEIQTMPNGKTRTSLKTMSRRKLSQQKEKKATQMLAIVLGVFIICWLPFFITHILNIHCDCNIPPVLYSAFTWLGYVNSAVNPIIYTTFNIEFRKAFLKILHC

This experiment concerns the target D(2) dopamine receptor (Homo sapiens) (UniProt P14416). The experiment in a line: HTS Assay for Allosteric Antagonists of the Human D2 Dopamine Receptor: Primary Screen for Antagonists. Also: 0% is about no effect. The following applies: HEK293 TREx D2 cells, calcium flux, dopamine EC80; at 10 µM; stronger effect = higher value. The method, boiled down:
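Tetracycline-induced HEK293 T-REx cells expressing D2 force-coupled to calcium signalling were dye-loaded, exposed to compound for 180 s, then challenged with an EC80 of dopamine; calcium flux was followed kinetically for a further 180 s.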
On to `CC(=O)c1ccc(N2C(=O)N(Cc3cccc(C(F)(F)F)c3)c3ccccc3S2(=O)=O)cc1`, for which the inhibition was -21.7%.
On to `Cc1nc2scc(C)n2c(=O)c1S(=O)(=O)NCc1ccccc1Cl`, for which the inhibition was determined as 0.495%.
`Cc1ccc(CS(=O)(=O)c2cn(CC(=O)N(C)c3ccccc3)c3ccccc23)cc1`: the inhibition is -6.61%.
Regarding `CC1=C(C(=O)OC2CCCC2)C(c2ccc(F)cc2F)CC(=O)N1` (stereo not drawn), the inhibition is -3.95%.
For `CCOc1cc(C(=O)Nc2ccc3oc(-c4ccc(F)cc4Cl)nc3c2)cc(OCC)c1OCC`, the inhibition stood at 4.58%.
For the compound `COc1ccc(N(Cc2cccs2)C(=O)c2ccccc2C)cc1`, the inhibition was -13.6%.
`Cc1ccc(NC(=O)c2cc(C)nn2-c2ccccc2)cc1`: the inhibition is 11.5%.
As for `COc1ccccc1CNC(=O)CC1N=C2c3ccccc3N=C(SCC(=O)Nc3ccc(F)cc3)N2C1=O` (stereo not drawn), the figure is 0.473%; as for `COc1ccc(S(=O)(=O)Nc2cccc(-c3ccc(N4CCOCC4)nn3)c2)cc1F`, 9.5%; as for `O=C(Cn1nc(-c2ccccc2)ccc1=O)NCc1ccc(F)cc1Cl`, -0.0872%.
`COc1ccccc1Nc1nn2c(=O)c3ccc(C(=O)N4CCC(C)CC4)cc3nc2s1`: the inhibition is -4.48%.
Regarding `O=C(c1nc(-c2ccc(Cl)cc2)n2c1CCCCC2)N1CCN(c2ccccc2F)CC1`, the inhibition was 6%.
Consider `COc1cc(Cl)c(C)cc1NC(=O)CCc1c(C)nc2cc(-c3cccc(F)c3)nn2c1C`, for which the inhibition was 17.3%.
As for `Cc1ccccc1NC(=O)c1c(NC(=O)C(C)Oc2cccc(Cl)c2)sc2c1CCCC2` (stereo not drawn), the figure is 12.3%; as for `CCc1c(C)sc2c1CCN(C(=O)Nc1ccccc1C(F)(F)F)C2c1ccccc1` (stereo not drawn), -18.2%.
With `O=C(CCn1cnc2onc(-c3ccc(F)cc3)c2c1=O)N1CCN(c2ccc(F)cc2)CC1`, the inhibition is -3.4%.
For the compound `CCn1c(C(=O)N2CCCC(C(=O)NCCCOC)C2)cc2sccc21` (stereo not drawn), the inhibition stood at 1.51%.
For the compound `COc1ccc2c(c1)cc1c(=O)n(CC(=O)NC3CCCCC3)nc(C)n12`, the inhibition was determined as 13.4%.
As for `Cc1ccc(NC(=O)c2oc3ccccc3c2NC(=O)Cc2cccs2)cc1`, the inhibition is -11.7%.
On to `CCOc1ccccc1NC(=O)Nc1nnc(N(C)Cc2ccccc2)s1`, for which the inhibition is -2.5%.
To `CCCCNCCCOc1cc(Cl)ccc1Cl` belongs active: 56%.
To `CCc1ccc(NC(=O)CC2C(=O)N(c3cccc(OC)c3)C(=O)N2Cc2ccco2)cc1` (stereo not drawn) belongs 4.47%; to `Cc1ccc(C(Nc2ccccn2)c2ccc3cccnc3c2O)cc1` (stereo not drawn), -12.9%; to `COc1ccccc1NC(=O)CCS(=O)(=O)c1ccc2nc(C)sc2c1`, -3.21%.
`Cc1cccc(COc2ccc(/C=C3/C(=O)N(C)C(=S)N3C)cc2)c1`: the inhibition was active: 30.5%.
Consider `CC(=O)N1CCC(N(C(=O)Nc2ccc(C)c(F)c2)C(C)C)CC1`, for which the inhibition was 0.318%.
For `COc1cc(Cl)c(NS(=O)(=O)c2ccc3c(c2)CC(C)N3C(=O)C2CCC2)c(OC)c1` (stereo not drawn), the inhibition was -3.13%.
As for `CCOc1ccccc1N(CC)C(=O)Nc1cn(C)c(=O)c2ccccc12`, the figure is -9.96%; as for `COc1ccc(OCC(=O)Nc2ccc(C(=O)OCc3cc(=O)n4nc(C)sc4n3)cc2)cc1`, 10.8%.
For `Cc1ccc(/C=C/c2onc(C)c2S(=O)(=O)N2CCC(C(=O)N3CC(C)Oc4ccccc43)CC2)cc1` (stereo not drawn), the inhibition turned out to be 7.98%.
To `CCCCCn1c(=O)[nH]c2cc(C(=O)N3CCN(c4ccccc4)CC3)ccc2c1=O` belongs 1.87%; to `COc1ccc(OC)c(NC(=O)CSc2nncc(=O)n2N)c1`, active: 36%.
As for `COc1ccc(N2CCN(C(CNC(=O)CC(C)C)c3ccc4c(c3)OCO4)CC2)cc1` (stereo not drawn), the figure is -11.7%; as for `CCc1cccc(CC)c1NC(=O)Cn1nnc2sc(-c3ccccc3)cc2c1=O`, -0.0959%; as for `COc1ccc(-c2nc(CS(=O)CC(=O)NCc3ccc(F)cc3)c(C)o2)cc1OC` (stereo not drawn), -17.4%.
With `Cc1ccc(-c2nc3ccc(Cl)cn3c2Nc2ccc3c(c2)OCCO3)o1`, the inhibition turned out to be 6.05%.
As for `CCCCOc1ccc(C2=NC(c3ccncc3)=Nc3ccc(Br)cc3N2)cc1`, the figure is 14.5%; as for `CCOC(=O)N1CCN(S(=O)(=O)N2CCCC(C(=O)NCc3cc(OC)ccc3OC)C2)CC1` (stereo not drawn), -25.9%; as for `Cc1nc(CC(=O)Nc2ccc(C)c(C)c2)cs1`, -18.4%.
In the case of `CCc1ccc(-n2c(SC(CC)C(=O)N(CC)CC)nc3n[nH]c(C)c3c2=N)cc1` (stereo not drawn), the inhibition is 18.8%.
Regarding `COc1ccc(N2CC(NC(=O)/C=C\c3ccc(OC)c(OC)c3)CC2=O)cc1` (stereo not drawn), the inhibition is -14.2%.
As for `CCOCCCNC(=O)C1CCCN(Cc2nc(-c3ccc(CC)cc3)oc2C)C1` (stereo not drawn), the figure is 2.92%.
Regarding `CCn1ccc2cc(S(=O)(=O)N3CCCN(C(=O)Nc4ccccc4OC)CC3)ccc21`, the inhibition was determined as 28%.
As for `CCc1ccc(OCC(=O)N(Cc2cccs2)c2ccc(Cl)cc2)cc1`, the inhibition stood at 6.46%.
On to `COc1ccc(NC(=O)C2CCCN(CCCc3ccccc3)C2)cc1OCC(C)C` (stereo not drawn), for which the inhibition was active: 79.7%.
Regarding `CCN(Cc1ccccc1)Cc1c(O)ccc2c(=O)c(-c3ccccc3OC)c(C(F)(F)F)oc12`, the inhibition was determined as 17.2%.
`Cc1cccc(OCCSc2nc3ccccc3n2CC(=O)N2CCCCC2)c1C`: the inhibition amounted to 14.4%.
For `CCOC(=O)c1ccc(N2CCN(c3cc(Cl)ccc3C)CC2)c(NC(=O)Nc2cccc(OC)c2)c1`, the inhibition is -10.3%.
On to `Cc1c(C)n(Cc2ccccc2)c2ccc(C(=O)NC(C)c3ccccc3)cc12` (stereo not drawn), for which the inhibition amounted to 4.86%.
Take `Cc1ccc(Cn2c(CNS(=O)(=O)c3c(C)cc(C)cc3C)nc3cccnc32)cc1`: the inhibition was determined as 27.7%.
In the case of `CC(=O)Nc1nonc1-c1nnc(SCC(=O)Nc2ccc(F)cc2F)n1-c1ccccc1`, the inhibition was -9.04%.
Consider `Cc1cccc(N2CCN(C(=O)c3cn(C4CCCCC4)c(=O)c4c3c3ccccc3n4C)CC2)c1C`, for which the inhibition is 10.9%.
To `Cc1cc2oc(=O)c(CC(=O)NCCc3ccccc3)c(C)c2c2occ(C(C)(C)C)c12` belongs -11.4%; to `COc1cc2c(cc1NC(=O)COc1cc(C)ccc1C)oc1ccccc12`, -2.22%.
Regarding `CCCOC(=O)c1c(C)oc2c1cc(NS(=O)(=O)c1ccc(OCC)cc1)c1ccccc12`, the inhibition was -2.29%.
For the compound `COc1ccc(-c2cn3c(n2)sc2cc(C(=O)NC4CCCc5ccccc54)ccc23)cc1` (stereo not drawn), the inhibition worked out at 6.01%.
Consider `Cc1cc(C(=O)O)c2c(=O)n(C)c(=O)n(C)c2n1`, for which the inhibition stood at 4.79%.
As for `CCN(C(=O)CCc1nc(-c2ccc(C)cc2)no1)c1cc(C)ccc1C`, the figure is 7.92%.
For the compound `CCCCN(C)CCCNC(=O)c1ccc2nc(N3CCCCC3)sc2c1`, the inhibition came to 4.4%.
For `Cc1cccc(NC(=O)C2CCCN(S(=O)(=O)c3cccc4nonc34)C2)c1C` (stereo not drawn), the inhibition was 5.34%.
On to `C/C(=N/NC(=O)c1ccc(Br)o1)c1ccncc1`, for which the inhibition was active: 38.2%.
In the case of `CCN1CCC(N(Cc2ccc3c(c2)OCO3)C(=O)Nc2cc(Cl)ccc2C(=O)OC)CC1`, the inhibition was -23%.
Regarding `Clc1ccc2c(c1)C(N1CCNCC1)Cc1ccccc1S2` (stereo not drawn), the inhibition was active: 98.5%.
For `CCCCN(CCCNC(=O)CN1N=C(c2ccccc2)CCC1=O)c1ccccc1`, the inhibition was -9.01%.
For `O=C(COc1ccccc1Cl)Nc1nc2c(s1)CCCC2`, the inhibition is -1.06%.
As for `CCC(=O)N1CCc2cc(S(=O)(=O)CCC(=O)NCCc3ccc(S(N)(=O)=O)cc3)ccc21`, the figure is active: 32.4%.
For `CCOc1cc(C2C(C(=O)OC)=C(C)NC3=C2C(=O)c2ccccc23)c(Br)cc1OC` (stereo not drawn), the inhibition was 7.03%.
In the case of `CCOCCCNC(=O)Cn1nc(C)n2c(cc3cc(C)ccc32)c1=O`, the inhibition is -7.33%.
With `Cc1cc(OCC(O)CN2CCc3ccccc3C2)ccc1Cl` (stereo not drawn), the inhibition is active: 79.2%.
As for `Cc1ccc(C)c(N2CCN(C(=O)Cn3c(=O)c4cccn4c4ccc(F)cc43)CC2)c1`, the figure is 7.77%.
Regarding `Cc1ccc(NC(=O)CSCn2nnc3c(=O)[nH]c(Cc4ccc(F)cc4)nc32)c(C)c1`, the inhibition worked out at 4.48%.
Regarding `CCCCC(CC)CNC(=O)CCCc1nnc2n(CCC)c(=O)c3sccc3n12` (stereo not drawn), the inhibition was 2.32%.
In the case of `Cc1cccc(N2CCN(C(=O)c3ccc4c(c3)N(Cc3ccccc3F)C(=O)c3ccccc3S4=O)CC2C)c1` (stereo not drawn), the inhibition is 0.373%.
For `COc1cc2c(=O)c(C(=O)c3ccc(C)c(C)c3)cn(Cc3ccccc3)c2cc1OC`, the inhibition was 3.13%.
For the compound `COc1ccc(-c2cc3nc(C)c(CCC(=O)N4CCN(c5ccccc5)CC4)c(C)n3n2)c(OC)c1`, the inhibition is 5.76%.
On to `Cc1cc(C)c2nc(NC(=O)c3ccc(S(=O)(=O)N4CCCC4)cc3)sc2c1`, for which the inhibition is 5.67%.
Regarding `CC(=O)Nc1nonc1-c1nnc(SCc2ccc(F)cc2)n1C`, the inhibition stood at 3.44%.
Take `CCCCSc1nnc2n(-c3cccc(C)c3)c(=O)c3c4c(sc3n12)CCCC4`: the inhibition amounted to 22.4%.
On to `COc1ccc(NC(=O)COCc2cc(-c3ccco3)on2)cc1`, for which the inhibition is -5.57%.
As for `Clc1ccc(-c2csc(=Nc3ccccc3)n2Cc2ccc3c(c2)OCO3)cc1`, the figure is 20.1%; as for `Fc1ccccc1Oc1ncnc2c1oc1ccccc12`, -4.06%; as for `CCOC(=O)Cn1ncc(-c2ccccc2)c1N`, active: 56.9%.
For `COc1ccc(NC(=O)CSc2nc3ccccc3[nH]2)cc1`, the inhibition turned out to be 5.52%.
`Cc1ccc2nc(COc3ccc(NC(=O)COc4ccccc4F)cc3)cc(=O)n2c1`: the inhibition was -11.2%.
As for `Cc1cccc(OCc2nc(C#N)c(NCc3ccccc3Cl)o2)c1`, the figure is 13.4%; as for `COCCNC(=O)CSc1c2c(nc3cc(Cl)ccc13)CCCC2`, 5.22%.
To `CCCc1nn2c(=O)cc(COC(=O)c3cccc(NC(=O)CCc4ccccc4)c3)nc2s1` belongs 9.7%.
In the case of `NCCCCCc1nnc(SCc2ccc(F)cc2)o1`, the inhibition was -6.77%.
As for `COCCCNC(=O)c1ccc2nc(Cc3ccc(OC)cc3)oc2c1`, the figure is 11%.
To `CCOc1ccc(CNC(=O)C2CCN(S(=O)(=O)N3CCCCC3)CC2)cc1` belongs 5.24%; to `CCn1cc(S(=O)(=O)c2ccc(OC)cc2)c(=O)c2cc(F)c(N3CCC(C)CC3)cc21`, -12.3%; to `Cc1ccc(CN(Cc2ccco2)C(=O)COc2c(C)cc(C)cc2C)cc1`, 7.19%.
As for `Oc1ccc(-c2nc3ccccn3c2Nc2ccc3c(c2)OCCO3)cc1`, the inhibition came to 0.905%.
As to `CCCCNS(=O)(=O)c1ccc2nc(-c3cccnc3)cc(C(=O)NCCC)c2c1`, the inhibition was 21.9%.
As for `Cn1c(SCc2ccccc2)nnc1-c1cnccn1`, the inhibition is active: 37.1%.
For `Cc1ccc(OCC(=O)Nc2ccccc2C(=O)OCc2cc(=O)n3nc(C4CC4)sc3n2)cc1`, the inhibition was 12.3%.
Take `O=C(c1cccs1)N(Cc1cccnc1)c1nc2ccc(F)cc2s1`: the inhibition is -19.4%.
On to `CC1CCN(C(=O)c2c(NC(=O)c3ccccc3F)sc3c2CCC(C(C)(C)C)C3)CC1` (stereo not drawn), for which the inhibition was found to be 15.9%.
